Assay results from PMC7442955, “Biochemical and functional characterization of a meiosis-specific Pch2/ORC AAA+ assembly” (Life Science Alliance, 2020).
These are yes or no findings as the source states them, for the method shown. For some assays here: In cells and extracts the contact can be indirect. Some results given as binding are weak or reduced against the parent protein; the word gives no strength. For some assays here: Where a sequence is shown, tags or fusion partners need not be part of it. Blank lines part the entries; values can stand above or below the binder they belong to.

Tests used:
Orc1–TAP (budding yeast) = molecular target: T1, Orc1–TAP (budding yeast) (UniProt P54784); test: co-IP; α-TAP IP (Dynabeads protein G) from lysates of meiotic prophase cells (4-5 h into the meiotic program); IP buffer 50 mM Tris–HCl pH 7.5, 150 mM NaCl, 1% Triton X-100, 1 mM EDTA; also with Benzonase, in ORC1 or orc1-161 backgrounds at 23°C, and in orc2–FRB cells with rapamycin or DMSO
T1 sequence: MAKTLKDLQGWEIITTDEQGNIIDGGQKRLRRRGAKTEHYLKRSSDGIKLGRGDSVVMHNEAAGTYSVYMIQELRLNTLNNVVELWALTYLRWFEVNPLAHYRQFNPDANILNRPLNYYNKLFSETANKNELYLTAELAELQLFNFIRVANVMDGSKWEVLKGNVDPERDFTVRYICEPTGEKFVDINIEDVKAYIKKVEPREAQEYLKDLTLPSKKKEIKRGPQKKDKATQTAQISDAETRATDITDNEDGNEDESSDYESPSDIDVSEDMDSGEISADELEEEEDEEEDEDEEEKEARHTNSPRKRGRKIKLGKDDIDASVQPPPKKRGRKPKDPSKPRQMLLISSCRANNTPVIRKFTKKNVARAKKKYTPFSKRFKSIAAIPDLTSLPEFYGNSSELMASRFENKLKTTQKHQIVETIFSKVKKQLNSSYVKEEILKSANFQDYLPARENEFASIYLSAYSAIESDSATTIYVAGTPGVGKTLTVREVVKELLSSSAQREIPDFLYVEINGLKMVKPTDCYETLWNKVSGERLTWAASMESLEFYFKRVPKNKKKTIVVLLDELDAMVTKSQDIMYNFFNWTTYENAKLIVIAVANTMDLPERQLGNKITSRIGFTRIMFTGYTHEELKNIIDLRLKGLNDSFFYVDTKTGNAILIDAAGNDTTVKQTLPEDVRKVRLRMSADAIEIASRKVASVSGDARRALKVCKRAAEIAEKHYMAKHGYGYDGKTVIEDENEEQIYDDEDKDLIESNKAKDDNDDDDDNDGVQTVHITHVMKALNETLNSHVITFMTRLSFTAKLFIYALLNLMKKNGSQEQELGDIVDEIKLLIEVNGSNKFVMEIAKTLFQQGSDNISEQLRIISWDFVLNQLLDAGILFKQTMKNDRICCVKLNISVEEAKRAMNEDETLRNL

Orc2–TAP (budding yeast) = molecular target: T2, Orc2–TAP (budding yeast) (UniProt P32833); test: as above
T2 sequence: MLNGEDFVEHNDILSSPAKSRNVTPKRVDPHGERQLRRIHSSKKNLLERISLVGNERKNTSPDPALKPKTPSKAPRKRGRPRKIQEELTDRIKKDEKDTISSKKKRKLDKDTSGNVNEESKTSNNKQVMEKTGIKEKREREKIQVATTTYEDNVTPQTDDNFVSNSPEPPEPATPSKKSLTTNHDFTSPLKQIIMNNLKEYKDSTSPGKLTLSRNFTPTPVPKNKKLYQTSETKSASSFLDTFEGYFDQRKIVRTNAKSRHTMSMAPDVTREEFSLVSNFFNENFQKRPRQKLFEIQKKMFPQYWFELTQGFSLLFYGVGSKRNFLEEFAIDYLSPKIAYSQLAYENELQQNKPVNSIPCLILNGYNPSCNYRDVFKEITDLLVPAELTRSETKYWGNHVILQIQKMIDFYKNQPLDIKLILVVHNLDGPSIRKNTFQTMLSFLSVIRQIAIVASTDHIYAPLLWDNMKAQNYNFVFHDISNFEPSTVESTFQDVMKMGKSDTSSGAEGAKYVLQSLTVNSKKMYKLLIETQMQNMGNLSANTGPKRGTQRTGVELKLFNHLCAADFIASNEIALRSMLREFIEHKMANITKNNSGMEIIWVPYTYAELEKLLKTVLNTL

Orc5–TAP (budding yeast) = molecular target: T3, Orc5–TAP (budding yeast) (UniProt P50874); test: as above
T3 sequence: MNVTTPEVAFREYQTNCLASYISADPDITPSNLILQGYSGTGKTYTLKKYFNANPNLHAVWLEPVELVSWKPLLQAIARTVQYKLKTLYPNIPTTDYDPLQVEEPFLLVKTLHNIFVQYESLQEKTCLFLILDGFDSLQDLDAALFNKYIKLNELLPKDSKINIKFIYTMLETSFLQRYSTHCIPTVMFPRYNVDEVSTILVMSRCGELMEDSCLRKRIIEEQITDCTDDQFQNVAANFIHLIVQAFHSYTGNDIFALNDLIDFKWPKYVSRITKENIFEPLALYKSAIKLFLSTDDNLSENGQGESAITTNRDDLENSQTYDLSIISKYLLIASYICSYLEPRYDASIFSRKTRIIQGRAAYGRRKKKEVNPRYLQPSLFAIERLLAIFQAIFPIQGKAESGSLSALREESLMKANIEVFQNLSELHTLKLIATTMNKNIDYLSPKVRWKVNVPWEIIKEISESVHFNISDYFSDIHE

[1] = molecular target: T4, Orc3 (subunit of the insect cell–purified ORC) (budding yeast) (UniProt P54790); test: cross-linking; XL-MS: 0.75 μM His–MBP–Pch2 with 1.5 μM His–ORC, 30 mM HEPES pH 7.5, 150 mM NaCl, 2 mM TCEP, 90 min at 4°C; 3 mM DSBU, 25°C, 1 h; MeroX, 2% FDR; both purified
T4 sequence: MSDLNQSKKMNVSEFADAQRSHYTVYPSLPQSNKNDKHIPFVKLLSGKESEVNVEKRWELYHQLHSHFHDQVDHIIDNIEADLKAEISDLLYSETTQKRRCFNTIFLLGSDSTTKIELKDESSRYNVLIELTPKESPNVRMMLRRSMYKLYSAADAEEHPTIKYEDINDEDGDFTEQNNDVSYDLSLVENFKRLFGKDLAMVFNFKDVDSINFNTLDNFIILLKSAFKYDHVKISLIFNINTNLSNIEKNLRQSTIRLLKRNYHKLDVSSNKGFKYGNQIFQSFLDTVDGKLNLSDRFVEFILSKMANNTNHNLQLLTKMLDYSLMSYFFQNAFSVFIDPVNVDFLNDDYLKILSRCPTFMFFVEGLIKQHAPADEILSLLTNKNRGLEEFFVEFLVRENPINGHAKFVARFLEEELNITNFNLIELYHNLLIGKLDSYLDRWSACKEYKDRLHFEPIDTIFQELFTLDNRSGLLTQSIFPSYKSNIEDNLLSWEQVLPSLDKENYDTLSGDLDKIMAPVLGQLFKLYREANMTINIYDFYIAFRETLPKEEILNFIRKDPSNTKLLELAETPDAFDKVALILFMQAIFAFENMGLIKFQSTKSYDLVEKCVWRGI

[2] = molecular target: T5, Pch2–E399Q (HA-tagged, expressed in meiotic cells) (budding yeast) (UniProt P38126); test: co-IP; α-HA IP of Pch2–E399Q from lysates of meiotic prophase cells (5 h), in CDC6 and cdc6-mn backgrounds
T5 sequence: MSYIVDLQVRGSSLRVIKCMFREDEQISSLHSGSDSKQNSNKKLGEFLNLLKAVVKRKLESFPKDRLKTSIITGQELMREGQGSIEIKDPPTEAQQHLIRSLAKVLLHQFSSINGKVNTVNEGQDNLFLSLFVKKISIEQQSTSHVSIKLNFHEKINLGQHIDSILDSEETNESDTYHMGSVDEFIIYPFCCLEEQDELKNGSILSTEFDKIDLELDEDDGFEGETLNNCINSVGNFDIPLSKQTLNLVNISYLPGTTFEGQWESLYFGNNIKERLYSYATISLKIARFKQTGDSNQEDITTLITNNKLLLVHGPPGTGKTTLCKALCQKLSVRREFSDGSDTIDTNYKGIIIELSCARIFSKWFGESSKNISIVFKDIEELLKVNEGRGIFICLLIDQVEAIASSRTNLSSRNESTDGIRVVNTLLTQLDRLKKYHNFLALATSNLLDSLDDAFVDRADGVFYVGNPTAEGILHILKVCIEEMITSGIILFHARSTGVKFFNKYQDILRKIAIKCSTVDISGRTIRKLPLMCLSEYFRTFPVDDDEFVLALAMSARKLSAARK

binding (Orc1–TAP (budding yeast)): binds
binding (Orc2–TAP (budding yeast)): binds
binding (Orc5–TAP (budding yeast)): binds
B1: Pch2–E399Q (HA-tagged, expressed in meiotic cells) (protein, UniProt P38126 1-564)
chain: MSYIVDLQVRGSSLRVIKCMFREDEQISSLHSGSDSKQNSNKKLGEFLNLLKAVVKRKLESFPKDRLKTSIITGQELMREGQGSIEIKDPPTEAQQHLIRSLAKVLLHQFSSINGKVNTVNEGQDNLFLSLFVKKISIEQQSTSHVSIKLNFHEKINLGQHIDSILDSEETNESDTYHMGSVDEFIIYPFCCLEEQDELKNGSILSTEFDKIDLELDEDDGFEGETLNNCINSVGNFDIPLSKQTLNLVNISYLPGTTFEGQWESLYFGNNIKERLYSYATISLKIARFKQTGDSNQEDITTLITNNKLLLVHGPPGTGKTTLCKALCQKLSVRREFSDGSDTIDTNYKGIIIELSCARIFSKWFGESSKNISIVFKDIEELLKVNEGRGIFICLLIDQVEAIASSRTNLSSRNESTDGIRVVNTLLTQLDRLKKYHNFLALATSNLLDSLDDAFVDRADGVFYVGNPTAEGILHILKVCIEEMITSGIILFHARSTGVKFFNKYQDILRKIAIKCSTVDISGRTIRKLPLMCLSEYFRTFPVDDDEFVLALAMSARKLSAARK

binding [1]: binds
B2: Orc5 (subunit of the insect cell–purified ORC) (natural protein, budding yeast, UniProt P50874 1-479, looked up)
chain: MNVTTPEVAFREYQTNCLASYISADPDITPSNLILQGYSGTGKTYTLKKYFNANPNLHAVWLEPVELVSWKPLLQAIARTVQYKLKTLYPNIPTTDYDPLQVEEPFLLVKTLHNIFVQYESLQEKTCLFLILDGFDSLQDLDAALFNKYIKLNELLPKDSKINIKFIYTMLETSFLQRYSTHCIPTVMFPRYNVDEVSTILVMSRCGELMEDSCLRKRIIEEQITDCTDDQFQNVAANFIHLIVQAFHSYTGNDIFALNDLIDFKWPKYVSRITKENIFEPLALYKSAIKLFLSTDDNLSENGQGESAITTNRDDLENSQTYDLSIISKYLLIASYICSYLEPRYDASIFSRKTRIIQGRAAYGRRKKKEVNPRYLQPSLFAIERLLAIFQAIFPIQGKAESGSLSALREESLMKANIEVFQNLSELHTLKLIATTMNKNIDYLSPKVRWKVNVPWEIIKEISESVHFNISDYFSDIHE
notes: Orc5, budding yeast; Stood in the assays as a subunit of m16; source: Tnao38 insect cells, co-expressed, purified as part of His–ORC

binding [2]: binds
B3: Orc1 (found with Pch2–E399Q as bait) (protein, UniProt P54784 1-914)
chain: MAKTLKDLQGWEIITTDEQGNIIDGGQKRLRRRGAKTEHYLKRSSDGIKLGRGDSVVMHNEAAGTYSVYMIQELRLNTLNNVVELWALTYLRWFEVNPLAHYRQFNPDANILNRPLNYYNKLFSETANKNELYLTAELAELQLFNFIRVANVMDGSKWEVLKGNVDPERDFTVRYICEPTGEKFVDINIEDVKAYIKKVEPREAQEYLKDLTLPSKKKEIKRGPQKKDKATQTAQISDAETRATDITDNEDGNEDESSDYESPSDIDVSEDMDSGEISADELEEEEDEEEDEDEEEKEARHTNSPRKRGRKIKLGKDDIDASVQPPPKKRGRKPKDPSKPRQMLLISSCRANNTPVIRKFTKKNVARAKKKYTPFSKRFKSIAAIPDLTSLPEFYGNSSELMASRFENKLKTTQKHQIVETIFSKVKKQLNSSYVKEEILKSANFQDYLPARENEFASIYLSAYSAIESDSATTIYVAGTPGVGKTLTVREVVKELLSSSAQREIPDFLYVEINGLKMVKPTDCYETLWNKVSGERLTWAASMESLEFYFKRVPKNKKKTIVVLLDELDAMVTKSQDIMYNFFNWTTYENAKLIVIAVANTMDLPERQLGNKITSRIGFTRIMFTGYTHEELKNIIDLRLKGLNDSFFYVDTKTGNAILIDAAGNDTTVKQTLPEDVRKVRLRMSADAIEIASRKVASVSGDARRALKVCKRAAEIAEKHYMAKHGYGYDGKTVIEDENEEQIYDDEDKDLIESNKAKDDNDDDDDNDGVQTVHITHVMKALNETLNSHVITFMTRLSFTAKLFIYALLNLMKKNGSQEQELGDIVDEIKLLIEVNGSNKFVMEIAKTLFQQGSDNISEQLRIISWDFVLNQLLDAGILFKQTMKNDRICCVKLNISVEEAKRAMNEDETLRNL
